# From PubChem BioAssay AID596 (National Center for Advancing Translational Sciences (NCATS), 2007)
# The whole screen tested about 71,000 compounds, of which about 1,400 (2%) were called active. The shares of active, inactive and inconclusive entries below differ from those in the screen. Calls follow the shape of the dose curve; as a rule, active = well fitted curve in the direction sought with a large enough effect; inconclusive = small, poorly fitted or top-dose-only effect; inactive = no such curve, though single readings can be large or run the other way. A potency beside an inconclusive call is a rough fit, not a confirmed value. More than one record can exist for a structure, and the calls need not agree.
# Target: Microtubule-associated protein tau (Homo sapiens) (UniProt P10636)
# Chain of UniProt P10636 (P10636 whole entry, looked up): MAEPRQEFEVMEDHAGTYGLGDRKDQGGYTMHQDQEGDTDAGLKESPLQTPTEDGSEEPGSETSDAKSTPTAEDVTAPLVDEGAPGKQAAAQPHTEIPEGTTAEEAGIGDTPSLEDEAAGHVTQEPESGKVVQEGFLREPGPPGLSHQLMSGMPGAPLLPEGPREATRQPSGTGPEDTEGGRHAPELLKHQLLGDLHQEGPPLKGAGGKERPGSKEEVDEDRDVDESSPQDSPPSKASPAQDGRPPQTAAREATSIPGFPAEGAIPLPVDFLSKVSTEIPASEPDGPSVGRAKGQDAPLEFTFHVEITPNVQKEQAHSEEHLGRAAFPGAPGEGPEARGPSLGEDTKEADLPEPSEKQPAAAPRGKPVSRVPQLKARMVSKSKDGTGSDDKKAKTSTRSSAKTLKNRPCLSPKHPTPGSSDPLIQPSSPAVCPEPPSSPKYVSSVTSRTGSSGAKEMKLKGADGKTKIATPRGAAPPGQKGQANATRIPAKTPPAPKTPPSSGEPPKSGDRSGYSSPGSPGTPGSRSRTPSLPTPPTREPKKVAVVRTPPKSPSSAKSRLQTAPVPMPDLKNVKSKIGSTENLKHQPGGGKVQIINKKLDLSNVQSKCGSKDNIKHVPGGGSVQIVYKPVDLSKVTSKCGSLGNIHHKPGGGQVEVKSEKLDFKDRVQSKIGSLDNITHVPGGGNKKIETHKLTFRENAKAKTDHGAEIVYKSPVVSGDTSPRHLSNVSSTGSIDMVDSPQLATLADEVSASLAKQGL
# Assay: qHTS Assay for Tau Filament Binding;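 also: actives lower thioflavin S fluorescence by blocking filaments or displacing dye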
# Conditions: recombinant tau filaments, thioflavin S fluorescence, 15 h; series mostly up to 57.1 µM; activity change, negative = inhibition: at the top concentration
# Outline: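 His-tagged recombinant human tau (exons 2, 3 and 10 included), 1 uM, was induced to fibrillize by 30 uM sodium octadecylsulfate with compound present. After 15 h at 37 C, thioflavine S fluorescence (ex 450, em 510 nm) was read.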
# % is scaled to controls: 0 for no effect and ±100 for the full control effect; potency is read from the fitted curve at half-maximal effect.
Compound,Potency,"activity change, negative = inhibition"
CNCCc1cnc[nH]1,inconclusive: 39.8 µM [decreasing] [filaments grown with octadecylsulfate alongside compound],–
CC(C)[C@@H]1CN[C@H](C(=O)O)[C@@H]1CC(=O)O,inconclusive: 39.8 µM [decreasing] [filaments grown with octadecylsulfate alongside compound],–
COc1ccc2c(c1OC)C(=O)O[C@@H]2[C@H]1c2cc3c(cc2CCN1C)OCO3,inconclusive: 39.8 µM [decreasing],–
O=C(O)c1nn(Cc2ccc(Cl)cc2Cl)c2ccccc12,inconclusive: 39.8 µM [decreasing],–
OC[C@H]1CCCN2CCCC[C@@H]12,inconclusive: 39.8 µM [decreasing] [filaments grown with octadecylsulfate alongside compound],–
O=c1[nH]oc2c1CCNC2,active: 31.6 µM,–
COc1cccc(N2CCN(Cc3cccc(Cl)c3)CC2)c1,inconclusive: 39.8 µM [decreasing],–
CN1CC[C@]2(C)c3cc(O)ccc3N(C)[C@@H]12,inconclusive: 31.6 µM [decreasing],–
CN1[C@@H]2CC[C@H]1CC(OC(=O)c1cc(Cl)cc(Cl)c1)C2 (some centres undefined),inconclusive: 39.8 µM [decreasing],–
c1cncc([C@@H]2CCCCN2)c1,inconclusive: 39.8 µM [decreasing],–
COc1cc2c(cc1OC)[C@]13CCN4CC5=CCO[C@@H]6CC(=O)N2[C@@H]1[C@H]6[C@@H]5C[C@H]43,inconclusive: 39.8 µM [decreasing],–
c1ccc(Nc2ccc(Nc3ccccc3)cc2)cc1,active: 12.6 µM [filaments grown with octadecylsulfate alongside compound],–
C[C@@H]1O[C@H](O[C@H]2C[C@@H](O)[C@]3(CO)[C@H]4[C@H](O)C[C@]5(C)[C@@H](C6=CC(=O)OC6)CC[C@@]5(O)[C@H]4CC[C@]3(O)C2)[C@@H](O)[C@H](O)[C@H]1O,inconclusive: 39.8 µM [decreasing],–
CCCCn1c(N)c(C(=O)OCC2CCCO2)c2nc3ccccc3nc21 (centres undefined),inconclusive: 25.1 µM [decreasing],–
Cc1o[nH]c(=O)c1C[C@H](N)C(=O)O,inconclusive: 39.8 µM [decreasing] [filaments grown with octadecylsulfate alongside compound],–
C[n+]1c(/C=C\c2ccc(O)c3ncccc23)[se]c2ccccc21,inconclusive: 2.51 µM [decreasing] [filaments grown with octadecylsulfate alongside compound],–
O=C(O)C[C@H]1OCC=C2CN3CC[C@@]45C6=CC(=O)C(=O)C([N+](=O)[O-])=C6N[C@H]4[C@H]1[C@H]2C[C@@H]35,–,inactive: 6.4% [at 11.4 µM]
c1ccc(C[C@@H](c2ccccc2)N2CCCCC2)cc1,inconclusive: 39.8 µM [decreasing],–
CCCCCCCCCOc1ccc2[nH]cc(CCN)c2c1,inconclusive: 39.8 µM [decreasing],–
NC[C@H](CP(=O)(O)O)c1ccc(Cl)cc1,inconclusive: 31.6 µM [decreasing],–
CCCN(C/C=C\I)[C@@H]1CCc2ccc(O)cc2C1,inconclusive: 39.8 µM [decreasing],–
Cc1ccc2c(c1)CNc1ccccc1O2,–,inactive: -19.7%
c1ccc([C@H]2CNCc3ccccc32)cc1,inconclusive: 39.8 µM [decreasing],–
Cc1ccc2c(c1N)C(=O)c1ccccc1C2=O,active: 3.98 µM [filaments grown with octadecylsulfate alongside compound],–
